To fix the notation:
B1: B785511 (anti-4-1BB/CD40 control molecule, C5V2-YTI-Fc-A297V3) (bispecific antibody, IgG1)
chain: QVQLVESGGGLVQPGGSLRLSCSASGFTFSSYAMSWVRQAPGKGLEWVSDINSGGESTFYEDSVKGRFTISRDNAKNTLYLQMNSLRAEDTAVYYCAKHPLTFTIATMNDYDYWGQGTLVTVSS[human IgG1 Fc with changes not given here]GGGGSGGGGSEVQLVESGGGLVQPGGSLRLSCAASGFTFSRYGMKWVRQAPGKGLEWVSTINSHGDTTYYADSVKGRFTISRDNAKNSLYLQMNSLRAEDTAVYYCLRIDYSDYSSRGQGTLVTVSS
notes: C5V2-YTI - IgG1 hinge - Fc (L234A, L235A) - (G4S)2 - A297V3; no FAP arm
B2: B977707 (anti-FAP/4-1BB/CD40 trispecific antibody) (other)
heavy: QVQLQQSGVEVKKPGASVTVSCRASGYSFADHFIHWVRQAPGQGFQWMGWINPNRGVTHHAQDFQGRVAMTRDMSTDTVYMELTSLRSDDTAVYYCARDASLTARPYYFYGFDVWGQGTLVTVSS[human IgG1 constant region with changes not given here]GGGGSGGGGSQVQLVESGGGLVQPGGSLRLSCSASGFTFSSYAMSWVRQAPGKGLEWVSDINSGGESTFYEDSVKGRFTISRDNAKNTLYLQMNSLRAEDTAVYYCAKHPLTYTIATMNDYDYWGQGTLVTVSSGGGGSGGGGSQVQLVESGGGLVQPGGSLRLSCSASGFTFSSYAMSWVRQAPGKGLEWVSDINSGGESTFYEDSVKGRFTISRDNAKNTLYLQMNSLRAEDTAVYYCAKHPLTYTIATMNDYDYWGQGTLVTVSS
light: DIQMTQSPSSVSASVGDRVTITCRASQGISSWLAWYQQKPGKAPKLLIYAASSLQSGVPSRFSGSGSGTDFTLTISSLQPEDFATYYCQQANSFPPAFGQGTKVEIKRTVAAPSVFIFPPSDEQLKSGTASVVCLLNNFYPREAKVQWKVDNALQSGNSQESVTEQDSKDSTYSLSSTLTLSKADYEKHKVYACEVTHQGLSSPVTKSFNRGECGGGGSGGGGSEVQLVESGGGLVQPGGSLRLSCAASGFTFSRYGMKWVRQAPGKGLEWVSTINSHGDTTYYADSVKGRFTISRDNAKNSLYLQMNSLRAEDTAVYYCLRIDYSDYSSRGQGTLVTVSS
B3: B785503 (anti-FAP/4-1BB/CD40 trispecific antibody) (other)
heavy: QVQLQQSGVEVKKPGASVTVSCRASGYSFADHFIHWVRQAPGQGFQWMGWINPNRGVTHHAQDFQGRVAMTRDMSTDTVYMELTSLRSDDTAVYYCARDASLTARPYYFYGFDVWGQGTLVTVSS[human IgG1 constant region with changes not given here]GGGGSGGGGSEVQLVESGGGLVQPGGSLRLSCAASGFTFSRYGMKWVRQAPGKGLEWVSTINSHGDTTYYADSVKGRFTISRDNAKNSLYLQMNSLRAEDTAVYYCLRIDYSDYSSRGQGTLVTVSS
light: DIQMTQSPSSVSASVGDRVTITCRASQGISSWLAWYQQKPGKAPKLLIYAASSLQSGVPSRFSGSGSGTDFTLTISSLQPEDFATYYCQQANSFPPAFGQGTKVEIKRTVAAPSVFIFPPSDEQLKSGTASVVCLLNNFYPREAKVQWKVDNALQSGNSQESVTEQDSKDSTYSLSSTLTLSKADYEKHKVYACEVTHQGLSSPVTKSFNRGECGGGGSGGGGSQVQLVESGGGLVQPGGSLRLSCSASGFTFSSYAMSWVRQAPGKGLEWVSDINSGGESTFYEDSVKGRFTISRDNAKNTLYLQMNSLRAEDTAVYYCAKHPLTFTIATMNDYDYWGQGTLVTVSS
notes: Trispecific: Ab10 IgG1 (L234A, L235A); A297V3 on heavy chain C-termini, C5V2-YTI on light chain C-termini
B4: B785502 (anti-FAP/4-1BB/CD40 trispecific antibody) (other)
heavy: QVQLQQSGVEVKKPGASVTVSCRASGYSFADHFIHWVRQAPGQGFQWMGWINPNRGVTHHAQDFQGRVAMTRDMSTDTVYMELTSLRSDDTAVYYCARDASLTARPYYFYGFDVWGQGTLVTVSS[human IgG1 constant region with changes not given here]GGGGSGGGGSEVQLVESGGGLVQPGGSLRLSCAASGFTFSRYGMKWVRQAPGKGLEWVSTINSHGDTTYYADSVKGRFTISRDNAKNSLYLQMNSLRAEDTAVYYCLRIDYSDYSSRGQGTLVTVSSGGGGSGGGGSQVQLVESGGGLVQPGGSLRLSCSASGFTFSSYAMSWVRQAPGKGLEWVSDINSGGESTFYEDSVKGRFTISRDNAKNTLYLQMNSLRAEDTAVYYCAKHPLTFTIATMNDYDYWGQGTLVTVSS
light: DIQMTQSPSSVSASVGDRVTITCRASQGISSWLAWYQQKPGKAPKLLIYAASSLQSGVPSRFSGSGSGTDFTLTISSLQPEDFATYYCQQANSFPPAFGQGTKVEIKRTVAAPSVFIFPPSDEQLKSGTASVVCLLNNFYPREAKVQWKVDNALQSGNSQESVTEQDSKDSTYSLSSTLTLSKADYEKHKVYACEVTHQGLSSPVTKSFNRGEC
notes: Trispecific: Ab10 IgG1 (L234A, L235A); heavy chain C-terminus-(G4S)2-A297V3-(G4S)2-C5V2-YTI

As usually defined, the EC50 is the concentration giving half of the maximal effect. A high value points to weaker potency.

The first experiment concerns the target T1, human FAP on the surface of CHO-K1 cells (CHO-K1-HuFAP) (human, UniProt Q12884 1-760).
T1 construct: whole, on cells; also called CHO cell line overexpressing human FAP; FAP on the surface of CHO-K1-HuFAP cells
As to the kind of experiment: FACS, CHO-K1-HuFAP cells. (In flow cytometry, cells or beads pass a laser one at a time.)
B1 registered a Maximum fluorescence value of 74.
Molecule B2 registered an EC50 of 2.4 nM and a Maximum fluorescence value of 113000.
In the same order, the values of B3 are 1.78 nM and 108000.
In the same order, the values of B4 are 3.38 nM and 147000.

The target of another experiment is T2, human 4-1BB on the surface of HEK293 cells (HEK293-Hu4-1BB) (human, UniProt Q07011 24-255). Put plainly: cell-based or functional assay.
T2 sequence (Q07011 24-255): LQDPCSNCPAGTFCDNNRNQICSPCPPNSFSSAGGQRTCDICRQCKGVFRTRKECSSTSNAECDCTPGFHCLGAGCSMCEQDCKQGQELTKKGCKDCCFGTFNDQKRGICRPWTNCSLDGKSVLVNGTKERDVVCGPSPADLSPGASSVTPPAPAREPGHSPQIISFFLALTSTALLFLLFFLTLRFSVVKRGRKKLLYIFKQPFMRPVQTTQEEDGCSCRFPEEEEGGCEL
Consider B1, for which the “4-1BB/NF-κB luciferase reporter, CD40-crosslinked, EC50” value stood at 0.026 nM; the “4-1BB/NF-κB luciferase reporter, CD40-crosslinked, Fold change in Emax” value stood at 8.48 fold; the “4-1BB/NF-κB luciferase reporter, FAP-crosslinked, Fold change in Emax” value came out at 6.93 fold; the “4-1BB/NF-κB luciferase reporter, uncrosslinked, Fold change in Emax” value turned out to be 7.2 fold.
As to B2, the “4-1BB/NF-κB luciferase reporter, CD40-crosslinked, Fold change in Emax” value turned out to be 7.27 fold; the “4-1BB/NF-κB luciferase reporter, FAP-crosslinked, EC50” value was 0.033 nM; the “4-1BB/NF-κB luciferase reporter, FAP-crosslinked, Fold change in Emax” value came to 9.74 fold; the “4-1BB/NF-κB luciferase reporter, uncrosslinked, Fold change in Emax” value is 5.28 fold.
In the case of B3, the “4-1BB/NF-κB luciferase reporter, CD40-crosslinked, EC50” value came to 0.03 nM; the “4-1BB/NF-κB luciferase reporter, CD40-crosslinked, Fold change in Emax” value was 9.8 fold; the “4-1BB/NF-κB luciferase reporter, FAP-crosslinked, EC50” value was 0.02 nM; the “4-1BB/NF-κB luciferase reporter, FAP-crosslinked, Fold change in Emax” value is 13.1 fold. The “4-1BB/NF-κB luciferase reporter, uncrosslinked, Fold change in Emax” value was found to be 8.42 fold.
In the same order, the values of B4 are 1.06 nM, 6.51 fold, 0.042 nM, 10.9 fold and 5.97 fold.

A further experiment has as its target T3, human CD40 on the surface of HEK293 cells (HEK293-HuCD40) (human, UniProt P25942 21-277).
T3 construct: whole, on cells; Also used as the target of the CD40/NF-κB reporter assays in HEK-Blue CD40L cells; also called cell strain highly expressing human CD40; CD40 of HEK-Blue CD40L reporter cells
T3 sequence (P25942 21-277): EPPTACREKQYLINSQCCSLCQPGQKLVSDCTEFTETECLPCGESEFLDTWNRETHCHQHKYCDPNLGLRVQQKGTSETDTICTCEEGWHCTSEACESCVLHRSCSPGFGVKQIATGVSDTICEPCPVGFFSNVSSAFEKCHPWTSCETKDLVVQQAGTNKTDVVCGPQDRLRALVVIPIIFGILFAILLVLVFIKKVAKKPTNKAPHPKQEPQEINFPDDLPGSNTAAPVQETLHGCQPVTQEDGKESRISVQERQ
Put plainly: FACS, HEK293-HuCD40 cells.
In turn, B1 gave an EC50 of 4.21 nM and a Maximum fluorescence value of 63200.
B2 came in with an EC50 of 6.23 nM and a Maximum fluorescence value of 88100.
The like results for B3 were, in that order, 4.22 nM and 66700.
The like results for B4 were, in that order, 3.39 nM and 68900.

The next experiment addresses T2, human 4-1BB on the surface of HEK293 …. As to the kind of experiment: FACS, HEK293-Hu4-1BB cells.
In turn, B1 came in with an EC50 of 0.251 nM and a Maximum fluorescence value of 6280.
As for B2, the response was half-maximal at 0.093 nM (EC50) and the Maximum fluorescence value was determined as 6200.
In the same order, the values of B3 are 0.439 nM and 6730.

For another experiment, the target named is T3, human CD40 on the surface of HEK293 …. As to the kind of experiment: cell-based or functional assay.
As to B1, the “CD40/NF-κB reporter (HEK-Blue CD40L), 4-1BB-crosslinked, EC50” value stood at 0.025 nM; the “CD40/NF-κB reporter (HEK-Blue CD40L), 4-1BB-crosslinked, Fold change in Emax” value is 10.8 fold; the “CD40/NF-κB reporter (HEK-Blue CD40L), FAP-crosslinked, Fold change in Emax” value came out at 7.77 fold; the “CD40/NF-κB reporter (HEK-Blue CD40L), uncrosslinked, Fold change in Emax” value turned out to be 7.26 fold.
For B2, the “CD40/NF-κB reporter (HEK-Blue CD40L), 4-1BB-crosslinked, EC50” value stood at 0.049 nM; the “CD40/NF-κB reporter (HEK-Blue CD40L), 4-1BB-crosslinked, Fold change in Emax” value amounted to 9.06 fold; the “CD40/NF-κB reporter (HEK-Blue CD40L), FAP-crosslinked, EC50” value is 0.019 nM; the “CD40/NF-κB reporter (HEK-Blue CD40L), FAP-crosslinked, Fold change in Emax” value is 9.32 fold. The “CD40/NF-κB reporter (HEK-Blue CD40L), uncrosslinked, Fold change in Emax” value was 7.78 fold.
In the same order, the values of B3 are 0.015 nM, 9.64 fold, 0.09 nM, 9.47 fold and 6.67 fold.
The like results for B4 were, in that order, 0.05 nM, 10.3 fold, 0.016 nM, 9.72 fold and 6.97 fold.

Source of the values: patent publication EP4674868A1 (Jiangsu Hengrui Pharmaceuticals Co., Ltd., dated 2026).
